Results are given in words; binding and its absence hold for the method and conditions named. Binding seen in cells or lysates may run through a third protein. Some entries that bind do so weakly or less than the wild type. For part of these data: Sequences can lack the tags named with a protein.
Columns and labels:
Assay in all cases: co-IP
[1] = molecular target: Myc-MmsA (M. tuberculosis) (UniProt O53816)
[2] = molecular target: Myc-tagged human STING (human) (UniProt Q86WV6)
[3] = molecular target: T1, Myc-tagged murine STING (mouse) (UniProt Q3TBT3)
T1 sequence: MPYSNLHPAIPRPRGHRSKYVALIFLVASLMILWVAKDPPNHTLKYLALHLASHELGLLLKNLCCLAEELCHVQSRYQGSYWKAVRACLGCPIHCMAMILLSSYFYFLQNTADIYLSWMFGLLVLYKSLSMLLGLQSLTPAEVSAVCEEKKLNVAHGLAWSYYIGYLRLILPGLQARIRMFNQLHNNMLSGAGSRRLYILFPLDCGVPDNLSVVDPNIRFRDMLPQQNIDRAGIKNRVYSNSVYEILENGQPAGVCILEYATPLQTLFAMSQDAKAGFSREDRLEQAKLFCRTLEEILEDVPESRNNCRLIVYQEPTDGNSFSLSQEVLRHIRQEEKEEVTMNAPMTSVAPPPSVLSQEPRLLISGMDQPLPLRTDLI

Amino acid sequences for entries named in this document (tags omitted). A change or cut given only in a name is not applied to a line headed by its entry.
UniProt O53816: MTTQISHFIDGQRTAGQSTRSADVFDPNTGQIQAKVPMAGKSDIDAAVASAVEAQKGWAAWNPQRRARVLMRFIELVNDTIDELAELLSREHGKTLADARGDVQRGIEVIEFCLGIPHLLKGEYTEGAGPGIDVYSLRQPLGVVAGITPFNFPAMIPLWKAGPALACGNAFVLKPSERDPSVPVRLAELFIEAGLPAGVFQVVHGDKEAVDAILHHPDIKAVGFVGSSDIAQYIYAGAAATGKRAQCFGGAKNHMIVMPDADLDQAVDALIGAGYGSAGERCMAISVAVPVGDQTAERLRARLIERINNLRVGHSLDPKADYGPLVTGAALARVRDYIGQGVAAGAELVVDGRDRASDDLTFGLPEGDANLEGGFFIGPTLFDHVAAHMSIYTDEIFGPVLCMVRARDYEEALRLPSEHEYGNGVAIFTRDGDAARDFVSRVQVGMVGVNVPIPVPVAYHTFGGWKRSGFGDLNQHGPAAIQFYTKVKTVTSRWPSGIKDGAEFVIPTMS
UniProt Q86WV6: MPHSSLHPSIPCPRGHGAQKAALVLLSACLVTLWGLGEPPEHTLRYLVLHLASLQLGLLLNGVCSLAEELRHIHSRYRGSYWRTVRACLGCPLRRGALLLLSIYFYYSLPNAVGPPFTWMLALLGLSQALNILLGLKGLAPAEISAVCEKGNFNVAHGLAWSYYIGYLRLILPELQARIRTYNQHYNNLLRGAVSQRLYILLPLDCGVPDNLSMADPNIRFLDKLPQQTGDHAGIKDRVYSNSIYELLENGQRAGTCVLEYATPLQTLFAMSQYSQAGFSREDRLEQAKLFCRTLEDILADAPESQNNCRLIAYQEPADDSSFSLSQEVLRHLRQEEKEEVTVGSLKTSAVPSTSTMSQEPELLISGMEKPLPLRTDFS
UniProt Q7Z434: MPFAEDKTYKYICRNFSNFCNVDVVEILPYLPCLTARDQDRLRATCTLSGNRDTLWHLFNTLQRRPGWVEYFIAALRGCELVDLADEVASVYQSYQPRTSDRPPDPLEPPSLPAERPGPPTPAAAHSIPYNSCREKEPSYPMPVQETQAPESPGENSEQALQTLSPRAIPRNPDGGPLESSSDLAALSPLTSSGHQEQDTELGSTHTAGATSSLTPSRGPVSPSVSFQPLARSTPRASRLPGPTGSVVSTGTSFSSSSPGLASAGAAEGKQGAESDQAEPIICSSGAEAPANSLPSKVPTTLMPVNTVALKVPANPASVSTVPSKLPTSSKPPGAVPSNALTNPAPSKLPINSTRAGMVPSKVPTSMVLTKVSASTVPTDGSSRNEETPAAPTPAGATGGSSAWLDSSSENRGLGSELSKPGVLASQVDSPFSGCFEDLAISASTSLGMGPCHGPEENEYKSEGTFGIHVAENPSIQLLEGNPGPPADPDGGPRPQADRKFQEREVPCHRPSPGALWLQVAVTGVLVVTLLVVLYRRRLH
UniProt Q8N884: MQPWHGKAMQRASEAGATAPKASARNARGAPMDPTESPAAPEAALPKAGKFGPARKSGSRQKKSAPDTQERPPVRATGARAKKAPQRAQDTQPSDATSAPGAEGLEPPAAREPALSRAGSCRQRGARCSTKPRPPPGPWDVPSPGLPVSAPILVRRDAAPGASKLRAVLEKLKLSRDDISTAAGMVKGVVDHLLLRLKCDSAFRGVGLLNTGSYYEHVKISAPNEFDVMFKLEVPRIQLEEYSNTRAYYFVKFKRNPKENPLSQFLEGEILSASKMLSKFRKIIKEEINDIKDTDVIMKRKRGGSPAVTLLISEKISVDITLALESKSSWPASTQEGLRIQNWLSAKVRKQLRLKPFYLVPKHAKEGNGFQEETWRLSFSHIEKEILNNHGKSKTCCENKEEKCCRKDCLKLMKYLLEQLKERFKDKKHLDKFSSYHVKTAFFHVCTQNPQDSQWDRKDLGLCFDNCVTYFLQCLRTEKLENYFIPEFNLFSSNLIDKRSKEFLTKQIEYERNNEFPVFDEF

[4] = molecular target: Flag-MmsA^1-251aa (M. tuberculosis H37Rv) (UniProt O53816)
[5] = molecular target: Flag-MmsA^1-455aa (M. tuberculosis H37Rv) (UniProt O53816)
[6] = molecular target: M. tuberculosis Flag-MmsA (Rv0753c) (M. tuberculosis H37Rv) (UniProt O53816)

Substance	binding [2]	binding [6]	further results
Flag-MAVS (from UniProt Q7Z434 1-540)	–	–	binding [1]: no binding
Flag-MmsA^1-251aa (from UniProt O53816 1-251) (domain or fragment)	binds	–	–
Flag-MmsA^1-455aa (from UniProt O53816 1-455) (domain or fragment)	binds	–	–
Flag-cGAS (from UniProt Q8N884 1-522)	–	–	binding [1]: no binding
M. tuberculosis Flag-MmsA (Rv0753c) (from UniProt O53816 1-510)	binds	–	binding [3]: binds
Myc-p62 (human p62, encoded by SQSTM1) (from UniProt Q13501 1-440)	–	binds	binding [4]: no binding; binding [5]: binds
Myc-tagged human STING (from UniProt Q86WV6 1-379)	–	binds	–
STING^C-Region (human STING aa 191 to 379), Myc-tagged (from UniProt Q86WV6 191-379) (domain or fragment)	–	no binding	–
STING^N-Region (human STING aa 1 to 190), Myc-tagged (from UniProt Q86WV6 1-190) (domain or fragment)	–	binds	–

— article PMC7733952
